Data as given in patent US11034935B2, “Liver organoid, uses thereof and culture method for obtaining them” (Koninklijke Nederlandse Akademie van Wetenschappen, priority 2010, dated 2021).

System: Lgr5
Details: Lgr5-LacZ knockin mice, 0.8 ml/kg injection
Text: The Wnt target gene Lgr5 marks stem cells in several actively self-renewing tissues, but has not previously been reported to be expressed upon injury. […] No expression of the reporter was detected in wild-type littermates undergoing similar injury protocol (see FIG. 13A, bottom right panel).

Structure (SMILES): ClC(Cl)(Cl)Cl [CC14, carbon tetrachloride]
- Lgr5 reporter expression in the liver: clear expression of the reporter in newly formed bud structures in the liver
